# Screen size: about 310,000 compounds; about 2,200 (0.71%) showed an effect of 50% or more. The effect is printed as a negative number. The list shows a part of the results.
# Target: human ether-à-go-go-related gene (hERG) potassium channel (human, UniProt Q12809)
# Assay: primary screen, population patch clamp on CHO cells stably expressing hERG
# Sequence of human ether-à-go-go-related gene (hERG) potassium channel (Q12809 whole entry, looked up): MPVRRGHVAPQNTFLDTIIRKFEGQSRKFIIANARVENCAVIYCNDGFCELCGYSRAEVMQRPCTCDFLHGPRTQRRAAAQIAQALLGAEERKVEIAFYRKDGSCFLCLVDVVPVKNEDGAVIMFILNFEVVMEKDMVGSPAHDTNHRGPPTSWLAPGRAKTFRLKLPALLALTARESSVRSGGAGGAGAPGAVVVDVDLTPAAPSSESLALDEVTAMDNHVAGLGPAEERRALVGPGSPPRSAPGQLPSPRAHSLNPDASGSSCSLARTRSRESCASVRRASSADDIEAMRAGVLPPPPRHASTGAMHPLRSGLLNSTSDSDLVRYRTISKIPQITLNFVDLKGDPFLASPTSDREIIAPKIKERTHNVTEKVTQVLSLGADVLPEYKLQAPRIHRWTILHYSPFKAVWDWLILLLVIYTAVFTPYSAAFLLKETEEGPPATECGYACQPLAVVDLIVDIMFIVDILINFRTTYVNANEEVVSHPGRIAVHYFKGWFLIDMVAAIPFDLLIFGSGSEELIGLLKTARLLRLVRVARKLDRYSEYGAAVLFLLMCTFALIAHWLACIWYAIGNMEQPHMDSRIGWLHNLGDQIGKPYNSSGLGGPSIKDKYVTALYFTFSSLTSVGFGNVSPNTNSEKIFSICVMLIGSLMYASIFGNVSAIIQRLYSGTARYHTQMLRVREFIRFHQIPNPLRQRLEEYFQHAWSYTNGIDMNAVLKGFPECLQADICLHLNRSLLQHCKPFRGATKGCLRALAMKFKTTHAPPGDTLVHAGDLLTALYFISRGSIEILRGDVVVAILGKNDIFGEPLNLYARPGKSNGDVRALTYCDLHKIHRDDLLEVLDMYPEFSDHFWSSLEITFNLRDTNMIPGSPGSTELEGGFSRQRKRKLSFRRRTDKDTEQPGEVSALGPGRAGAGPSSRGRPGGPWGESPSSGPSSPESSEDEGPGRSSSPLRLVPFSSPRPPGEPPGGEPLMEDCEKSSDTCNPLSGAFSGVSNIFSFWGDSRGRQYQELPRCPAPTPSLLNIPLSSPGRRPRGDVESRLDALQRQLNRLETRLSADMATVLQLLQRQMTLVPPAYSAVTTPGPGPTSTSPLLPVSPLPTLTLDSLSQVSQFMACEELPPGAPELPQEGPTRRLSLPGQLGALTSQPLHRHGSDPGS
row,SMILES,"hERG current change (%, negative = inhibition) at 1uM [%]"
1,O=C1NC2(CCCCC2)C(=O)N1Cc1cccc(C(F)(F)F)c1,4.55
2,COc1cc(C(=O)Nc2cccc(-c3nncn3C)c2)cc(OC)c1OC,-5.98
3,COc1ccc2occ(C(=O)c3ccccc3)c2c1,-1.31
4,Cc1ncoc1C(=O)N1CCCC(C(=O)c2ccc3c4c(cccc24)CC3)C1 (centres unmarked),-1.71
5,COc1ccccc1CNc1nc2ccccc2n1CCN1CCCCC1,-29.9
6,O=C(Nc1cccnc1Cl)c1ccc(Cl)cc1,13.4
7,COc1ccc(N2CCCC2)c(NC(=O)c2ccc(Br)o2)c1,12.3
8,COc1ccc(Nc2nnc(Cc3ccc(Cl)cc3)c(=O)[nH]2)c(OC)c1,16
9,O=C(CCCC(=O)OCC(F)(F)C(F)F)Nc1ccccc1F,6.24
10,COc1ccc(C(=O)C(CCC(CNC(C)(C)C)C(=O)c2ccc(OC)cc2)CNC(C)(C)C)cc1.Cl (centres unmarked),-0.112
11,COc1ccccc1C(=O)NC1CCSc2ccccc21 (centres unmarked),11.4
12,Cc1ccc(C)c(N2CCN(C(=O)c3ccc4c(c3)c(C)c(C)n4C)CC2)c1,9.85
13,CCN1CCCC1CNC(=O)c1cc2cc(F)ccc2[nH]1 (centres unmarked),-53.8
14,c1ccc(COc2ccc(-c3csnn3)cc2)cc1,12.5
15,CC(Sc1ccc([N+](=O)[O-])cn1)C(=O)Nc1nccs1 (centres unmarked),10.6
16,C[C@@H]1C=CC(=O)O[C@@H]1c1ccc(C(F)(F)F)cc1,3.58
17,Cn1cccc1C(=O)C(=O)Nc1cccc(Cl)c1Cl,13.8
18,COc1ccc(N2CCN(C(=O)COC(=O)c3ccc(-n4nc(C)cc4C)cc3)CC2)cc1,3.11
19,Nn1c(CSc2nc3ccccc3o2)nnc1CSc1nc2ccccc2o1,13.7
20,COc1cccc(-c2cc(C(=O)N3CCN(C(c4ccccc4)c4ccccc4)CC3)no2)c1,12.5
21,Cc1ccccc1CSCCNC(=O)CSCc1ccc([N+](=O)[O-])cc1,-7.7
22,OC[C@H]1O[C@@H](n2cnc3c(Nc4ccccc4)ncnc32)[C@H](O)[C@@H]1O,7.74
23,O=C(CSC1=NCCS1)Nc1nc2ccccc2s1,-0.0242

row,SMILES,"hERG current change (%, negative = inhibition) at 1uM [%]"
1,CCc1ccc(NC(=O)Cn2c(SC)nc3ccccc32)cc1,10.1
2,Cc1csc(Sc2ccc([N+](=O)[O-])cc2C(=O)OCC(=O)NC2CCCC(C)C2C)n1 (centres unmarked),-8.58
3,CN(CP(=O)(O)CN(C)S(C)(=O)=O)S(C)(=O)=O,3.77
4,CCOCCCNC(=S)N1CCN(C(=O)C(=O)Nc2ccc(C(=O)OC)cc2)CC1,-12
5,Cc1cc(/C=C2\C(=O)NC(=O)N(Cc3ccco3)C2=O)c(C)n1-c1ccc(C(=O)O)cc1,13.8
6,CC(C)C[C@@H](CO)N1CCN(Cc2ccccc2)CCC1=O,9.54
7,COc1cc2c(cc1OC)C(NNC(=O)c1ccc(Br)o1)=NC(C)(C)C2,16.9
8,CC(C)C(NS(=O)(=O)c1ccccc1)C(=O)N1CCCCCC1 (centres unmarked),18.1
9,COCC(=O)N1CCC(Oc2cccc(C(=O)NCc3ccccn3)c2)CC1,14.8
10,COc1ccc(N(C(=O)c2snc(C(N)=O)c2N)C(C(=O)NC2CCCC2)c2ccc(C)o2)c(OC)c1 (centres unmarked),11
11,CCOc1ccccc1N(CC(=O)NC(C)(C)C)C(=O)c1ccc(CN2CCOCC2)o1,13.7
12,COc1ccc(-n2c(SC(C)C(=O)Nc3ccc(NC(C)=O)cc3)nc3ccccc3c2=O)cc1OC (centres unmarked),14.1
13,CCN(CC)CCNC(=O)c1ccc(NC(=O)/C=C/c2ccc3ccccc3n2)cc1,8.45
14,O=C(N/N=C1/CCc2ccccc21)C1CC1,6.47
15,O=C(CCl)N1c2ccccc2OCC1c1ccccc1 (centres unmarked),3.86
16,CCOc1ccc(CCNC(=O)COC(=O)c2cccs2)cc1OCC,-17.3
17,O=C(Oc1ccc(-c2csnn2)cc1)C1CC1,9.89
18,O=C(COc1ccc(Cl)cc1)Nc1ccc2c(c1)nc1n2CCOC1,-18.4
19,N#Cc1ccccc1COC(=O)c1cc(=O)c2ccccc2o1,15.5
20,CC1(C)SC(=S)N(/N=C/c2cccnc2)C1N(O)C(=O)Nc1ccccc1 (centres unmarked),-1.2
21,CC1CCc2c(sc(NC(=O)CSc3nc4c(c(C(F)(F)F)n3)CCc3ccccc3-4)c2C(N)=O)C1 (centres unmarked),20.1
22,CCOC(=O)c1nn(-c2ccc(C)cc2)c(=O)cc1OCC(=O)Nc1cccc(C)c1,15.3
23,CN(CCC1CCOCC1)C(=O)C1CCC(=O)N(CCc2ccc(Cl)cc2)C1 (centres unmarked),-25.2

row,SMILES,"hERG current change (%, negative = inhibition) at 1uM [%]"
1,Cc1c2ccncc2c(C)c2c1[nH]c1ccccc12,8.35
2,CON(C)c1nc(Oc2ccc(=O)[nH]n2)nc(N(C)C)n1,-3.26
3,CN(C(=O)COC(=O)C1CCN(S(=O)(=O)c2cccs2)CC1)C1CCS(=O)(=O)C1 (centres unmarked),1.96
4,COc1ccc(Cc2nc(C(=O)Nc3ccc(OC)cc3)cs2)cc1,11.5
5,CCOC(=O)Cn1c(=O)c(-c2ccccc2N)nc2ccccc21,11.2
6,CCc1cccc(NC(=S)Nc2ccc(CN3CCOCC3)cc2)c1,9.4
7,CCc1nnc(NC(=O)CSc2ncc(-c3ccccc3)[nH]2)s1,-3.47
8,Cn1c(COc2ccccc2)nnc1SCC(=O)NC1CCCC1,7.08
9,CC1CCCN(C(=O)CSc2nnc3n(C4CCCC4)c(=O)c4ccccc4n23)C1 (centres unmarked),-0.92
10,CCCCN(CCCC)/C(N)=N/c1nc(C)cc(C)n1,-51.8
11,C=CCNc1sc(C(=O)c2ccc(Br)s2)c(N)c1C#N,11.7
12,Cc1sc2c(c1C)C(O)=C(C(=O)Nc1ccccc1)S(=O)(=O)N2C,2.62
13,CC(=O)Nc1ccc(-c2nnc(SCC(=O)NCc3ccco3)n2C)cc1,13.6
14,Cc1c(/C=N/NC(=O)c2cc(C(C)(C)C)[nH]n2)c2ccccc2n1C,8.94
15,O=C(COc1ccccc1F)NCc1nc2ccccc2[nH]1,0.802
16,COc1ccc(NC(=O)c2c(C)oc3c2CCCC3)cc1,10.5
17,CCOC(=O)CCNC(=O)c1ccccc1Br,6.92
18,COc1cccc(C(=O)Nc2nnc(-c3cccs3)s2)c1,8.2
19,COC(=O)C(=O)N1CC2(C)CNCC(C)(C1)C2=O,2.03
20,CC1=C(C(=O)OCc2ccccc2)C(/C=C/c2ccccc2)N2C(=O)CCSC2=N1 (centres unmarked),17.6
21,COc1cccc(OCC(O)CN2CCN(C(c3ccccc3)c3ccccc3)CC2)c1.Cl (centres unmarked),3.72
22,O=C(N=Nc1c(O)[nH]c2ccccc12)c1ccco1,14.3
23,CCCNC(=O)c1ccccc1NS(=O)(=O)c1ccc2c(c1)OCCO2,14.1

row,SMILES,"hERG current change (%, negative = inhibition) at 1uM [%]"
1,O=C(C1CCN(S(=O)(=O)c2cccc3cccnc23)CC1)N1CCN(c2ccccn2)CC1,-7.75
2,COc1ccc(S(=O)(=O)CCC(=O)N2CCN(c3cccc(Cl)c3)CC2)cc1,6.35
3,COc1ccc(-c2nc(=S)[nH][nH]2)cc1OC,10.4
4,CCOC(=O)C1CCCN(C(=O)c2cccc(S(=O)(=O)N(C)c3ccc(C)cc3)c2)C1 (centres unmarked),-5.55
5,COc1ccc(/C=C/C(=O)Nc2ccc(-n3nncc3-c3ccccc3)cc2)cc1OC,6.33
6,CC(C)(C)n1nc2c(c1NC(=O)c1ccc(C(F)(F)F)cc1)CS(=O)(=O)C2,-9.67
7,COc1ccc(CNC(=S)Nc2ccccc2F)cc1,16.1
8,CCCCNC(=O)C1CC(c2cccc([N+](=O)[O-])c2)=NO1 (centres unmarked),5.09
9,COc1ccc(N2C(=O)CCC(C(C)=O)=C2C)cc1,10.7
10,COC(=O)CCSc1nccn1Cc1ccccc1,8.84
11,COc1ccc(C(=O)/C=C/Nc2ccc(S(=O)(=O)Nc3cccc(C(C)=O)c3)cc2)cc1,6.96
12,O=C(COC(=O)c1cccc(NS(=O)(=O)c2ccc(F)c(F)c2)c1)NC(=O)NC1CCCCC1,11.6
13,O=C(CCc1ccccc1)c1ccc2c(c1)OCCCO2,-8.59
14,CCOC(=S)SCC(=O)Nc1nc(-c2ccccc2)cs1,29.9
15,O=C(N/N=C/c1cn(-c2ccccc2)nc1-c1cc2ccccc2o1)c1ccncc1,5.23
16,CCC(Oc1ccccc1)C(=O)N1CCN(c2ccccn2)CC1 (centres unmarked),13.3
17,Cc1ccc(C(=O)OCc2nc3ccccc3s2)o1,4.16
18,Cc1ccsc1C(=O)OCC(=O)Nc1ccc(Cl)cc1C(F)(F)F,5.52
19,CCc1ccccc1OCC(=O)Nc1ccc(S(N)(=O)=O)cc1,23.2
20,COc1ccc(-c2cc(-c3cccnc3)c(C#N)c(N)n2)cc1,8.12
